The text below walks through data of PubChem BioAssay (NCI).

Structures are written as SMILES. Values joined by “and” are separate entries in the source; they are usually repeats but may differ in a detail not shown here. Identical values can stand only once.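 Following 48 hours of exposure in 96-well plates, responses at five concentrations were used to interpolate endpoints linearly. Here, GI50 denotes the concentration required for 50% inhibition of growth. TGI denotes the concentration required for complete inhibition of growth.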

The assay deals with NCI-H322M lung. In words: NCI tumour cell line growth inhibition, 48 h.
For the molecule `Cn1c2ccccc2c(=O)c2c(O)cc3c(c21)C=CC1(CCCC1)O3`, the TGI is greater than 100 µM.
The same measure, in the same setting: in the case of `CCN(CC)CCN=Cc1c(O)c(O)c(C(C)C)c2cc(C)c(-c3c(C)cc4c(C(C)C)c(O)c(O)c(C=NCCN(CC)CC)c4c3O)c(O)c12` it was 20.3 µM.
For `CCCCCC(=O)OCC(=O)O[C@@H]1C[C@]2(C(C)C)O[C@@]1(C)[C@@H]1CC[C@@H](C)[C@H]1[C@@H]2OC(=O)/C=C/c1ccccc1`, the GI50 was greater than 85.4 µM and the TGI was greater than 100 µM.
Take `CC(=O)NCCCCCCNC(C)=O`: the TGI was greater than 10000 µM.
The same measure, in the same setting: as for `CN(/N=C/c1ccnc2ccccc12)c1ccc([N+](=O)[O-])cc1[N+](=O)[O-]`, the figure is greater than 100 µM.
The same measure, in the same setting: as for `C[C@@H]1C[C@@H](O)[C@@]2(O)C13CC(=O)OC(C3)[C@@H](C)[C@@]2(C)CO` (stereo partly specified), the figure is greater than 100 µM; as for `N#CC1=C(C#N)/C(=C(\C#N)C(C#N)C#N)N=C1N`, 34.9 µM.
As for `C[C@H]1CCC/C=C/[C@@H]2C[C@H](O)C[C@H]2[C@H](O)[C@@H](S(=O)CCN)CC(=O)O1` (stereo partly specified), the GI50 was 0.0497 µM and the TGI was determined as 3.09 µM.
For `CC(C)=CCC/C(C)=C/CC/C(=C/COP(=O)(OCc1ccc([N+](=O)[O-])o1)N(C)CCCCCl)CC=C(C)C` (stereo unspecified) the same measures were 20.2 µM and 38.5 µM.
For the molecule `CC[C@@H](C)[C@H]([C@H](CC(=O)N1CCC[C@@H]1[C@@H](OC)[C@H](C)C(=O)N[C@H](Cc1ccccc1)c1nccs1)OC)N(C)C(=O)[C@H](NC(=O)[C@@H](C(C)C)N(C)C)C(C)C`, the GI50 was less than 0.215 µM.
With `COc1ccc(NC(=O)Nc2ccc(Nc3nc(C)cc(Nc4ccc(C)cc4)n3)cc2)cc1`, the GI50 is 1.59 µM and the TGI was found to be 3.09 µM.
`Nc1nc(Cl)cc(NCC2(CO)CCC2)n1` returned a TGI greater than 100 µM.
Regarding `O=C1C=CN(C2OC(CO)C(O)C2O)C(=O)C1` (stereo unspecified), the GI50 was 267 µM; the TGI is 625 µM and > 2500 µM.
Consider `COc1cccc2c1cc([N+](=O)[O-])c1c(C(=O)O)cc3c(c12)OCO3`, for which the GI50 was 26.1 µM and the TGI is greater than 100 µM.
For `CCOC(=O)CNC(=O)CCCn1c(=O)c2c3ccccc3n(C)c2n2nnc(-c3ccccc3)c12` the same measures were greater than 50 µM and greater than 50 µM.
For `O=C(NCCCNC(=O)OCc1ccc2c(Br)cc(Br)c(O)c2n1)OCc1ccc2c(Br)cc(Br)c(O)c2n1` the same measures were greater than 100 µM and greater than 100 µM.
For the molecule `C[C@H]1C(OCCOC2O[C@@H]3O[C@@]4(C)CC[C@H]5[C@H](C)CCC([C@H]2C)[C@@]35O4)O[C@@H]2O[C@@]3(C)CC[C@H]4[C@H](C)CCC1[C@@]24O3` (stereo partly specified), the TGI was greater than 100 µM.
Take `O=C(N=Nc1c(O)[nH]c2c(Cl)cc(Cl)cc12)c1ccncc1`: the TGI is greater than 100 µM.
Molecule `COc1cccc(-c2cccc(SC)n2)n1` had a TGI greater than 100 µM.
Consider `NC(=O)C12C3C4C1C1C2C3C41C(N)=O` (stereo unspecified), for which the TGI is greater than 100 µM.
The same measure, in the same setting: as for `CC(C)CNc1nc(N)[nH]c(=O)c1NC=O`, the figure is greater than 100 µM.
Turning to `O=C(Nc1cccc2cccnc12)c1ccc(N2C(=O)[C@@H]3[C@H](C2=O)[C@@H]2C=C[C@H]3C2)cc1`, the GI50 was greater than 66.3 µM and the TGI is greater than 100 µM.
`CC1CCCN(CC(O)CN2CCCc3ccccc32)C1` (stereo unspecified) returned a TGI greater than 100 µM.
For the molecule `COc1ccccc1CNC(=O)C1c2ccccc2C(=O)N(CC(C)C)C1c1cccs1` (stereo unspecified), the GI50 is 32.2 µM and the TGI was greater than 100 µM.
For `COc1ccc(-c2c3c(n(C4OC(CO)C(O)C(O)C4O)c(=S)c2C#N)CC(C)(C)CC3=O)cc1` (stereo unspecified), the TGI is greater than 100 µM.
For the molecule `CC[C@H](Nc1nc(N)nc(N)c1Cl)c1nc2cccc(NCc3ccc(C(=O)NO)cc3)c2c(=O)n1-c1ccccc1`, the GI50 is 2.25 µM and the TGI was 7.18 µM.
As to `CC1(C)CCCCCCCCCC(C)(CCCO)C1=O` (stereo unspecified), the TGI was 24.7 µM.
The same measure, in the same setting: in the case of `NS(=O)(=O)c1ccc(NC(=O)CC(=O)Nc2ccc(S(N)(=O)=O)cc2)cc1` it was greater than 100 µM; in that of `NC1=CC(C(=O)c2ccncc2)c2nc3ccccc3nc21` (stereo unspecified), greater than 100 µM.
Still for that read-out and setting: in the case of `c1ccc2cc(OCC3CO3)c(OCC3CO3)cc2c1` (stereo unspecified) it was 25.2 µM.
The same measure, in the same setting: as for `c1ccc2c[n+](CCCCCCCCCC[n+]3ccc4ccccc4c3)ccc2c1`, the figure is greater than 10 µM; as for `CCc1ccccc1-n1c2nc(=O)n(C)c(=O)c-2nc2ccccc21`, 34.2 µM; as for `COC1C=C(NCC2(CO)CCC2)NC(N)=N1` (stereo unspecified), greater than 100 µM.
In the case of `O=C1NC(=O)C2(CCC(O)C2)c2cc[n+]([O-])cc21` (stereo unspecified), the TGI was greater than 100 µM.
`Cn1c(=O)c2c(nc(C[N+]3([O-])CCOCC3)n2C)n(C)c1=O` registered a TGI greater than 100 µM.
The same measure, in the same setting: in the case of `O=C1c2ccccc2C(=O)c2c(NCCNC(=O)C3CCCN3)ccc(NCCNC(=O)C3CCCN3)c21` (stereo unspecified) it was 0.261 µM.
The same measure, in the same setting: as for `CC1(C)OC(=O)C(C)(C)OC1=O`, the figure is greater than 100 µM; as for `COc1cc(C)cc2c1C(=O)C(Br)=CC2=O`, 31.5 µM.
Turning to `CN(C)c1ncnc2c1ncn2C1C=CC(COS(N)(=O)=O)C1` (stereo unspecified), the TGI was greater than 100 µM.
Regarding `CCC(CC)C(=O)OC[n+]1cccc(-c2c(COC(=O)NC(C)C)c(COC(=O)NC(C)C)c3n2CCC3)c1`, the TGI is greater than 100 µM.
With `COc1ccc(C2C(c3ccccc3)C(=O)N2c2cc(OC)c(OC)c(OC)c2)cc1I` (stereo unspecified), the GI50 is 0.546 µM and the TGI is greater than 100 µM.
For the molecule `COC1=CC(C2c3cc4c(cc3[C@@H](Nc3ccc([N+](=O)[O-])cc3)C3COC(=O)[C@H]23)OCO4)=CC(=O)C1=O` (stereo partly specified), the TGI is greater than 95.4 µM.
Still for that read-out and setting: as for `COc1ccc(/C=C2\N=C(c3ccccc3)N(Nc3nnc(NN4C(=O)/C(=C/c5ccc(OC)cc5)N=C4c4ccccc4)c4ccccc34)C2=O)cc1`, the figure is greater than 100 µM.
The molecule `COC(=O)[C@H]1C=C[C@@H](C)n2c(=O)c3ccccc3c(=O)n21` had a TGI greater than 100 µM.
Regarding `NC(N)=N/N=C/c1cccc(Cl)c1Cl`, the GI50 was 4.49 µM and the TGI amounted to 16.1 µM.
As to `CC(C)c1cc(CNc2nc(Nc3cc(C4CC4)[nH]n3)cc(N3CCN(C)CC3)n2)on1`, the GI50 was 0.621 µM and 0.329 µM; the TGI is 5.61 µM and 3.28 µM.
Consider `COc1cc2c(cc1OC)C1C(O)C(OC)C=C3CC[N+](C)(C2)C31` (stereo unspecified), for which the TGI was greater than 100 µM.
Same read-out and setting: as for `CCOC(=O)N1c2ccccc2S(=O)(=O)c2ccccc21`, the figure is greater than 100 µM; as for `CN(C)CCOC1(Cc2ccc(Cl)cc2Cl)CCC(C(C)(C)C)CC1` (stereo unspecified), 3.14 µM and 3.23 µM; as for `NC(=O)C(=CN1C(=O)CC(=O)NC1=S)C(N)=O`, greater than 100 µM.
The same measure, in the same setting: as for `NC1=NC2(O)c3ccccc3C(=O)C2(O)N1` (stereo unspecified), the figure is greater than 100 µM; as for `CC(NC(=O)/C(C#N)=C/c1ccc2[nH]ccc2c1)c1ccccc1` (stereo unspecified), 50.9 µM.
The same measure, in the same setting: in the case of `CCOC(=O)C1=C(O)c2ccccc2C(=O)C1=O` it was greater than 100 µM.
Regarding `COC(=O)c1c2c(c(C)[n+]([O-])c1C)C(=O)C(NCc1cccc(OC)c1)=CC2=O`, the GI50 is 2.3 µM and the TGI is 6.34 µM.
For `CCn1c(-c2nonc2N)nc2c(C#CC(C)(C)O)nc(O[C@@H](CN)c3ccccc3)cc21`, in that order: 0.639 µM and 3.74 µM.
With `COC(C/C(=C/CO[Si](C(C)C)(C(C)C)C(C)C)C(=O)Nc1ccccc1I)OC`, the TGI is greater than 100 µM.
On to `CCN(CC)CCCCCOc1cc(O)c2c(=O)cc(-c3ccccc3)oc2c1`, for which the GI50 is 7.21 µM and the TGI came out at 20.2 µM.
Turning to `O=C(NCCN1CCOCC1)Nc1ccc(-c2cc3c(Nc4ccc(Oc5cccc(C(F)(F)F)c5)c(Cl)c4)ncnc3s2)cc1`, the GI50 is 1.76 µM and the TGI amounted to 7.31 µM.
For the molecule `CC(C)(C)C1CCC2(CC1)CCN(CCCN1CCOCC1)CC2`, the TGI is greater than 100 µM.
The molecule `COc1ccc(CCNCc2cccc(OC)c2OC)cc1OC` gave a TGI greater than 100 µM.
As for `CCOC(=O)N1C/C(=C/c2ccc(OC)cc2)C(=O)/C(=C/c2ccc(OC)cc2)C1`, the GI50 was greater than 32.4 µM and the TGI is greater than 61.7 µM.
In the case of `CS(=O)(=O)c1[nH]nc2[nH]c(=O)[nH]c(=O)c12`, the TGI was greater than 10 µM.
The same measure, in the same setting: as for `CC(=O)n1nc(-c2nc3ccccc3nc2Cl)cc1Cl`, the figure is 73.9 µM.
With `CCCCCCNC(=O)Oc1ccc(/C(=C(\C)c2ccccc2)c2ccc(OCCN3CCCCC3)cc2)cc1`, the GI50 was 10.2 µM and the TGI turned out to be 27.9 µM.
For `Cc1[nH]nc2c1N=C(c1ccccc1F)c1cc(C#N)ccc1N2` the same measures were 5.64 µM and 16.3 µM.
As for `COC(=O)/C(C#N)=C1\NC(=O)CC(c2ccccc2)C1C#N` (stereo unspecified), the TGI is greater than 100 µM.
As for `Cc1c2ncccc2nc2[nH]c3ccc(OCCN(C)C)cc3c12`, the GI50 was 1.38 µM and the TGI stood at 11.6 µM.
The molecule `COc1cc2ccc1-c1cc(ccc1O)CC1c3cc4c(cc3CCN1C)Oc1c(OC)cc3c(c1O4)C(C2)N(C)CC3` (stereo unspecified) returned a TGI of 4.04 µM.
Same read-out and setting: in the case of `COC1(OC)CC2C(=O)N(Cc3ccccc3)C1CC2S(=O)(=O)c1ccccc1` (stereo unspecified) it was greater than 100 µM.
Take `COc1ccc(-n2c3c(c4cc(O)ccc42)C(=O)c2ccccc2C3=O)cc1`: the TGI was found to be 59.7 µM.
Regarding `Cc1ccccc1-n1c(/C=C\c2ccccn2)nc2ccccc2c1=O`, the GI50 was 25.3 µM and the TGI came to 89.7 µM.
With `C[C@]12CC(c3ccccc3O1)C(C#N)C(=O)N2` (stereo partly specified), the TGI was greater than 100 µM.
Molecule `Cc1[nH]n(-c2nc3c(c(=O)[nH]2)CCC3)c(=O)c1CCO` displayed a TGI greater than 100 µM.
The same measure, in the same setting: in the case of `CCOC(=O)c1cc(C2CCN(CC(C)CC)C2=S)c(C(=O)/C=C(/C)N)[nH]1` (stereo unspecified) it was greater than 50 µM.
On the same count and under the same terms, in the case of `O=[N+]([O-])c1cc(Cl)cc2c1nc(NCCO)c1ccccc12` it was greater than 100 µM; in that of `CN(C)[C@@H]1C(=O)C(C(=O)NCNCCCC(=O)O)=C(O)[C@@]2(O)C(=O)C3=C(O)c4c(O)cccc4[C@@](C)(O)[C@H]3C[C@@H]12`, greater than 100 µM.
In the case of `COc1ccc2[nH]c(-c3cccc(N(C)C)c3)cc(=O)c2c1`, the GI50 was 0.515 µM and the TGI was greater than 100 µM.
`COC(=O)C1=C(c2cc(OC)c(OC)c(OC)c2)OC(c2cc(OC)c(OC)c(OC)c2)C1COC(C)=O` (stereo unspecified): the TGI is greater than 100 µM.
On the same count and under the same terms, in the case of `O=C(CCCNC(=O)OCc1ccccc1)OCc1ccc2c(c1)C(=O)c1ccccc1C2=O` it was greater than 100 µM.
In the case of `CCCCN(CCCC)CC(C)(C)C(O)c1ccc(OC)c2ccccc12` (stereo unspecified), the GI50 was 6.69 µM and the TGI was 37.5 µM.
For the molecule `O=C1C(Cl)C(c2ccc(Cl)cc2)N1n1cnc2ccccc2c1=O` (stereo unspecified), the TGI is greater than 100 µM.
